The antibiotic and cytotoxicity screens of Wong et al. (2023)
The other results are listed elsewhere or left out.

Experiments:
HSkMC = human skeletal muscle cells; experiment: cytotoxicity call (relative viability < 0.9); conditions: 10 µM
HepG2 = experiment: cytotoxicity call (relative viability < 0.9); conditions: 10 µM
S. aureus RN4220 = experiment: growth inhibition call (relative growth <= 0.2); conditions: 50 µM

| SMILES | cytotoxicity call (HSkMC) | cytotoxicity call (HepG2) | growth inhibition call (S. aureus RN4220) |
| --- | --- | --- | --- |
| C/C=C/[C@@H](CCn1cc(CCO[Si](C(C)C)(C(C)C)C(C)C)nn1)[Si](C)(C)c1ccc(OC)cc1 | inactive | inactive | inactive |
| C[C@@H]1CCCCO[C@H](CN(C)C(=O)Nc2ccccc2)[C@H](C)CN([C@H](C)CO)C(=O)c2cc(NC(=O)c3ccccc3)ccc2O1 | inactive | inactive | inactive |
| C[C@H](CO)N1C[C@H](C)[C@H](CN(C)S(=O)(=O)c2ccccc2F)Oc2ncc(C#Cc3ccncc3)cc2C1=O | inactive | active | inactive |
| C[C@@H]1CN([C@@H](C)CO)C(=O)c2cc(NC(=O)Nc3ccccc3)ccc2O[C@@H](C)C/C=C/CO[C@H]1CN(C)S(=O)(=O)c1ccc(F)cc1 | inactive | active | inactive |
| Br.CN(C)CCCC1(c2ccc(F)cc2)OCc2cc(C#N)ccc21 (stereo not drawn) | inactive | inactive | inactive |
| Cc1noc(C)c1S(=O)(=O)Nc1cccc2c1O[C@@H](CN(C)CC1CC1)[C@@H](C)CN([C@@H](C)CO)C2=O | inactive | inactive | inactive |
| Cc1nn2c(N)csc2nc1=O | inactive | inactive | inactive |
| O=C1C2CC3CC1CC(O)(C3)C2 | inactive | inactive | inactive |
| Cc1ccc(NC2C(=O)NC(=O)N2N)cc1 (stereo not drawn) | inactive | inactive | inactive |
| C[C@@H]1CCCCO[C@@H](CN(C)C(=O)c2ccccc2)[C@H](C)CN([C@@H](C)CO)C(=O)c2cc(NC(=O)c3ccccc3)ccc2O1 | inactive | inactive | inactive |
| COc1ccc(S(=O)(=O)Nc2ccc3c(c2)C(=O)N([C@H](C)CO)C[C@H](C)[C@@H](CN(C)Cc2ccc(C(=O)O)cc2)OCCCC[C@H](C)O3)cc1 | inactive | inactive | inactive |
